# “And” between values parts separate entries of the source, which are not always exact repeats. Equal values may be shown once. Inconclusive results, whose numbers are uncertain, are shown with a selection of clear calls. For part of these data: Potencies beside an inconclusive call are fits to weak or partial responses and may not hold up. Some structures have more than one record in an assay (separate samples or runs), and their calls can disagree. The source made the active and inactive calls. Unless noted, calls come from the whole dose curve; as a rule, active = well fitted curve in the direction sought with a large enough effect in the repeat runs; inconclusive = weak or mixed curves; inactive = no such curve, though single readings can be large; an effect the other way counts as inactive or inconclusive.
# Assays:
# [1] = qHTS assay for small molecule agonists of the p53 signaling pathway - cell viability (AID 651633; calls by dose curve; note: potency is the fitted concentration of half-maximal effect; nearly all actives have a fitted effect of over 30% in size)
# Procedure, shortened: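 p53RE-bla cells were treated with compound for 16 hours at 37 C. Cytotoxicity was then measured as CellTiter-Glo luminescence after 30 min at room temperature.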
# [2] = qHTS assay for small molecule disruptors of the mitochondrial membrane potential (AID 720635); settings: HepG2 mitochondrial membrane potential, Mito-MPS dye ratio; for Potency: ratio activity, negative = MMP loss: at 83.2 µM (top of the series) unless noted; note: potency is the fitted concentration of half-maximal effect; for ratio activity, negative = MMP loss: % is set by controls: 0 for no effect and ±100 for the full control effect
# Procedure, shortened: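 HepG2 cells exposed to compound 1 hr at 37C, then Mito-MPS dye 30 min. Ratio read of aggregate (540/590 nm) versus monomer (490/535 nm) fluorescence.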
# [3] = qHTS assay for small molecules that induce genotoxicity in human embryonic kidney cells expressing luciferase-tagged ATAD5 - cell viability (AID 651634; calls by dose curve; note: nearly all actives have a fitted effect of over 25% in size; note: potency is the fitted concentration of half-maximal effect; for activity, negative = cytotoxicity: % is set by controls: 0 for no effect and ±100 for the full control effect)
# Procedure, shortened: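 Fluorescence from CellTiter-Fluor, reporting protease activity within live cells, served as the viability read-out. HEK293T cells carrying luciferase-tagged ATAD5 had been treated with compound for 15.5 hr at 37C.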
# [4] = qHTS assay for small molecule disruptors of the mitochondrial membrane potential - cell viability (AID 720634; calls by dose curve; note: potency is the fitted concentration of half-maximal effect; nearly all actives have a fitted effect of over 20% in size)
# Procedure, shortened: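 Cells: HepG2, 2,000/well, attached overnight. Compound 1 hr, 37 C/5% CO2. +m-MPI dye, +CellTiter-Glo 30 min RT. Readout: luminescence (ATP).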
# [5] = target: Glucocorticoid receptor (Homo sapiens) (UniProt P04150); assay: qHTS assay to identify small molecule agonists of the glucocorticoid receptor (GR) signaling pathway (AID 720691; active = well fitted activation curve with a large enough effect in the signal ratio in the repeat runs, not every such curve was filed as active; inconclusive = weak or mixed curves, or effect the other way; inactive = no such curve, though single readings can be large or run the other way; the % refers to the signal ratio; note: potency is the fitted concentration of half-maximal effect); settings: GR-bla HeLa, beta-lactamase reporter ratio, 18 h; activation: at 62.4 µM (top of the series) unless noted
# Procedure, shortened: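 Fluorescence intensity from LiveBLAzer B/G FRET substrate (2 h, room temperature) reports beta-lactamase expression driven by the glucocorticoid response element in GR-bla HeLa cells after 18 h compound exposure at 37 C.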
# [6] = target: Glucocorticoid receptor (Homo sapiens) (UniProt P04150); assay: qHTS assay to identify small molecule antagonists of the glucocorticoid receptor (GR) signaling pathway (AID 720692; active = well fitted inhibition curve with a large enough effect in the signal ratio in the repeat runs, not every such curve was filed as active; inconclusive = weak or mixed curves, or effect the other way; inactive = no such curve, though single readings can be large or run the other way; the % refers to the signal ratio; note: potency is the fitted concentration of half-maximal effect); settings: GR-bla HeLa, beta-lactamase FRET ratio, dexamethasone-stimulated, 18 h; activity change, negative = inhibition: at 58.5 µM (top of the series) unless noted
# Procedure, shortened: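 HeLa GR-bla cells; cmpd + dex 5 nM final, 18 h 37 C; LiveBLAzer B/G FRET substrate 2 h RT; fluorescence intensity read. Antagonist mode, qHTS.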
# [7] = qHTS assay for identifying genotoxic compounds that show differential cytotoxicity against isogenic chicken DT40 cell lines with known DNA damage response pathways - wild type cell line (AID 743012); settings: DT40 wild type chicken cells viability, CellTiter-Glo, 40 h; activity change, negative = cytotoxicity: at 68.4 µM (top of the series) unless noted; note: potency is the fitted concentration of half-maximal effect; nearly all actives have a fitted effect of over 60% in size
# Procedure, shortened: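 Wild type DT40, 300 cells/well, ~0.5 h settle at 37 C/5% CO2; compounds in DMSO added by pintool; 40 h at 37 C/5% CO2; CellTiter-Glo, 30 min RT; luminescence.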
# [8] = qHTS assay for identifying genotoxic compounds that show differential cytotoxicity against isogenic chicken DT40 cell lines with known DNA damage response pathways - Rad54/Ku70 mutant cell line (AID 743015); settings: DT40 Rad54/Ku70 mutant viability, CellTiter-Glo, 40 h; activity change, negative = cytotoxicity: at 66.8 µM (top of the series); note: potency is the fitted concentration of half-maximal effect; nearly all actives have a fitted effect of over 60% in size
# [9] = qHTS assay for identifying genotoxic compounds that show differential cytotoxicity against isogenic chicken DT40 cell lines with known DNA damage response pathways - Rev3 mutant cell line (AID 743014); settings: chicken DT40 Rev3-/- viability, CellTiter-Glo, 40 h; activity, negative = cytotoxicity: at 68.4 µM (top of the series); note: % is set by controls: 0 for no effect and ±100 for the full control effect; nearly all actives have a fitted effect of over 55% in size
# Tags give direction and shape of the fitted curve or compound fluorescence and quenching.
# Sequence of UniProt P04150 (P04150 whole entry, looked up): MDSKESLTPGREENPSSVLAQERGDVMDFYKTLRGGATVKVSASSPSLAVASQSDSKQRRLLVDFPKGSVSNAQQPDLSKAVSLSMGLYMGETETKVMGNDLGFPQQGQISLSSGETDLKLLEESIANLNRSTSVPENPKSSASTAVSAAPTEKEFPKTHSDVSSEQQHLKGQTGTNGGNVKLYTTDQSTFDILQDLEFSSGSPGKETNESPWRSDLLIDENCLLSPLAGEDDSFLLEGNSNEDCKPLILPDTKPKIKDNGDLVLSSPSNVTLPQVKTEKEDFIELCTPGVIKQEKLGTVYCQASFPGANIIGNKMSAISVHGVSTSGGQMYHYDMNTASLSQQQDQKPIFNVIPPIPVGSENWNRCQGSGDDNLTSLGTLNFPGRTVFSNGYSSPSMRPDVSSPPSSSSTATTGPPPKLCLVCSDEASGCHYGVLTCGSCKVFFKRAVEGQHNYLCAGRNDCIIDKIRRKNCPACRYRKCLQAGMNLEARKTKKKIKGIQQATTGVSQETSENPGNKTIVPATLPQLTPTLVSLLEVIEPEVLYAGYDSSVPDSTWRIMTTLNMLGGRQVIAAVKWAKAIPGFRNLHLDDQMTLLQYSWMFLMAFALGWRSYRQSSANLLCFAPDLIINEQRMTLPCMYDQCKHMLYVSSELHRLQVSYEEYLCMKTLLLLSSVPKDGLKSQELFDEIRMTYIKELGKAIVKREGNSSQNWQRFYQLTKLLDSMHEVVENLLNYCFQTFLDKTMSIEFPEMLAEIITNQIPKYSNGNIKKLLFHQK
compound,measurement,setting,value
CC(C)C(=O)OCC(C)(C)C(OC(=O)C(C)C)C(C)C (stereo not given),Potency,[1],active: 30.9 µM
same,"ratio activity, negative = MMP loss",[2]; at 83.2 µM (top of the series),inconclusive: -1.95%
same,"ratio activity, negative = MMP loss",[2]; at 95.3 µM (top of the series),inconclusive: -1.48%
O=C(O)C(F)(F)C(F)(F)C(F)(F)C(F)(F)C(F)(F)C(F)(F)C(F)(F)F,Potency,[3],"inconclusive: 30.5 µM [falling, partial curve, poor fit]"
same,Potency,[2],"inconclusive: 68.5 µM [fluorescent, single point] and inconclusive: 60.9 µM [fluorescent, partial curve, poor fit]"
S=C=Nc1cccc2ccccc12,Potency,[3],inactive
same,Potency,[4],active: 48.1 µM
same,Potency,[2],active: 17.1 µM
same,Potency,[5],inconclusive: 48.5 µM [cytotoxic]
same,Potency,[6],active: 17.2 µM
same,Potency,[7],"inconclusive: 76.2 µM [cytotoxic, single point]"
same,Potency,[8],"inconclusive: 67.9 µM [cytotoxic, single point]"
N#Cc1cccc(C#N)c1,Potency,[3],inactive
same,Potency,[2],inactive
same,Potency,[9],inactive
